Article PMC4336329 (PLoS ONE, 2015)
Out of some 310,000 compounds screened, about 14,000 (4.5%) showed an effect of 50% or more. Effects have a minus sign here. The list shows a part of the results.

What follows are compounds tested against human ether-à-go-go-related gene (hERG) potassium channel (human, UniProt Q12809) (assay: primary screen, population patch clamp on CHO cells stably expressing hERG).
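Further: peak tail current of the secondary pulse compared with the same well before compound.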

Chain of human ether-à-go-go-related gene (hERG) potassium channel (Q12809 whole entry, looked up): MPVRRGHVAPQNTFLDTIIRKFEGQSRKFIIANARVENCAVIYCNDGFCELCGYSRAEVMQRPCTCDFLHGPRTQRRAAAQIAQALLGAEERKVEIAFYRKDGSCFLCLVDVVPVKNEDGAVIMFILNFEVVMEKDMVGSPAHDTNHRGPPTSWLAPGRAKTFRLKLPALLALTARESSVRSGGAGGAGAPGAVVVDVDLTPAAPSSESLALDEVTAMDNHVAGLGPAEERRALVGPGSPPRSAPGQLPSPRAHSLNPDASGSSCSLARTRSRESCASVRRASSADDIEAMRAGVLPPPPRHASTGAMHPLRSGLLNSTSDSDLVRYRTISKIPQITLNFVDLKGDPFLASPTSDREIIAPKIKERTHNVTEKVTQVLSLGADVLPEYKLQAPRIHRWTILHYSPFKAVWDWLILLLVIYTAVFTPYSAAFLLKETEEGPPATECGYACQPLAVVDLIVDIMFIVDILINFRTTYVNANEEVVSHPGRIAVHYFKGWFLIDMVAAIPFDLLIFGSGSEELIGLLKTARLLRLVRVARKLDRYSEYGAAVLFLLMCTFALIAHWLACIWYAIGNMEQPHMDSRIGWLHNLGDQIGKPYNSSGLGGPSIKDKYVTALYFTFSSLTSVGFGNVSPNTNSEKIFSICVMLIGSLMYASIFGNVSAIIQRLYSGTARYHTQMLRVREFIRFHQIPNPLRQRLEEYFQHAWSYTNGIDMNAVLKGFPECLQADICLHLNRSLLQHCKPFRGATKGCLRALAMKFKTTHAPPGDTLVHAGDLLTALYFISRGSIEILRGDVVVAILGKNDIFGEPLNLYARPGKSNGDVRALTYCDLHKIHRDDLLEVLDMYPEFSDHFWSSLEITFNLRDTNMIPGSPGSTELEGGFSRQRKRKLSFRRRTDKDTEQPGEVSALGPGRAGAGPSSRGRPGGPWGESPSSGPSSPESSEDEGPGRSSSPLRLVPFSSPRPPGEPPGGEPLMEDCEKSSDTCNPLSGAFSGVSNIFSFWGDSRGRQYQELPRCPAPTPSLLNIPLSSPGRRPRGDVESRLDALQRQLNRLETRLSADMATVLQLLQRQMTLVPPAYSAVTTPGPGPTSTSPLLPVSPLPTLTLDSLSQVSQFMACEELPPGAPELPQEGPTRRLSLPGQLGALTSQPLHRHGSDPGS

| Structure (SMILES) | hERG current change (%, negative = inhibition) at 10uM [%] |
| --- | --- |
| CC(=O)N(c1ccc(C)cc1)S(=O)(=O)c1ccc(Cl)cc1 | 6.03 |
| O=c1[nH]c(SCCOc2ccccc2F)nc2ccccc12 | 12.6 |
| Cc1ccc2c(c1)C1CN(C)CCC1N2C(=O)c1cccs1 (stereo not shown) | -22 |
| COCCCNC(=S)N(Cc1cccnc1)Cc1ccc(OC)c(OC)c1 | 12.4 |
| CCOCCCn1c(=S)[nH]c2cc(C(=O)NCC(OC)OC)ccc2c1=O | 10.3 |
| O=C(c1ccc2c(c1)OCO2)N1CCC2(CC1)Oc1ccc(Cl)cc1C(=O)C21CC(c2ccccc2)=NO1 (stereo not shown) | -3.51 |
| N#Cc1ccccc1NC(=O)CC1CCCCC1 | 0.146 |
| CCc1ccc(OCc2n[nH]c(=S)n2Cc2ccccc2)cc1 | -9.87 |
| NS(=O)(=O)c1ccc2nc(NC(=O)c3ccc4ncsc4c3)sc2c1 | 5.34 |
| CC(=O)OCCCN1C(=O)c2ccc(Br)cc2C1=O | -8.99 |
| COC(=O)C1=C(N)Oc2c(c(=O)oc3ccccc23)[C@]12C(=O)N(C)c1ccccc12 | -8.19 |
| COc1ccc(S(=O)(=O)N2CCCCC2)cc1NC(=O)c1cc(C)on1 | 19.3 |
| N#Cc1ccc(C(=O)NNC(=O)c2ccncc2)cc1 | 19.1 |
| COc1cccc(NC(=O)CCN2CCOCC2)c1.Cl | 15.4 |
| O=CNc1ccccc1Oc1ccccc1 | 0.412 |
| CCOC(=O)c1ccc(NC(=O)CNC(=O)C2CCCCC2)cc1 | -35.2 |
| COc1ccccc1N1CCN(C(=O)CSc2nc3ccccc3nc2N2CCCCC2)CC1 | 19 |
| O=C(N/N=C/C=C/c1ccccc1)c1ccccn1 | -19.2 |
| O=C(NCCN1CCOCC1)c1ccc(Cl)c([N+](=O)[O-])c1 | 16.5 |
| CCOC(=O)c1c(S(=O)(=O)N(C)C2CCCCC2)c(C)n(C)c1C | -5.03 |
| COc1ccc(C(CNC(=O)COc2cccc(C(F)(F)F)c2)N2CCCC2)cc1 (stereo not shown) | -41.4 |
| COc1ccc(CC(=O)Nc2ccc(S(=O)(=O)N3CCCCC3)cc2)cc1OC | -6.86 |
| COc1cc(/C=N/NC(=O)c2cc[n+]([O-])cc2)cc(OC)c1OC | 4.7 |
| O=C(N/N=C/c1ccc(O)cc1O)c1ccc(NC(=O)C2CCCCC2)cc1 | 34.5 |
| O=C(CSc1n[nH]c(-c2ccccc2)n1)Nc1ncccn1 | -3.98 |
